From the supplement of paper PMC10126150
Values marked as one replicate rest on one cluster of the flow cell; about a third of the high ones do not repeat.
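Note: ATP exposure 15 min at 22 °C before imaging.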

Each sequence was assayed on ATP (assay: switch fluorescence ratio, 500 uM ATP over buffer (Cy3 cluster intensity, sum of 5 cycles each) (fold (ratio)); higher = stronger signal-on switching upon ATP binding; sequences stand for … in TCGTCGGCAGCGTCAGATGTGTATAAGAGACAGTTTTTTTTTTTTTTTTTTTTTTTTT…TC). Conditions: aptamer strand: ATP DNA aptamer (quencher-CACCTGGGGGAGTATTGCGGAGGAAGG + anchor), 100 nM annealed; ATP concentration: 500 uM; one replicate.
How it was run: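 The fluorescence ratio divides summed target-cycle Cy3 intensity by summed buffer-cycle Cy3 intensity for each cluster and is averaged per switch-domain sequence. Cy3-labelled switching-strand clusters on a modified Illumina MiSeq flow-cell were annealed to 100 nM quencher-labelled ATP aptamer, then imaged in selection buffer and again after 15 min with 500 uM ATP at 22 °C. Five such cycles were run, with NaOH stripping and re-annealing between them, and clusters outside 100-1000 RFU were excluded.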
AGAGGAGATT showed a switch fluorescence ratio of 1. AGAGGCATGC gave a switch fluorescence ratio of 0.985. With AGAGGGATGA the switch fluorescence ratio was 1.01. Sequence AGAGGGGTCC has a switch fluorescence ratio of 1.05. AGAGGTCATT was tested, and the switch fluorescence ratio was 1.02. In the case of AGAGGTCGGT, the switch fluorescence ratio is reported as 1. AGAGTACGTC showed a switch fluorescence ratio of 0.986. Sequence AGAGTATTCT has a switch fluorescence ratio of 0.975. Work on AGAGTCTCC yielded a switch fluorescence ratio of 1.02. AGAGTGGCCA was tested, and the switch fluorescence ratio was 1.05. AGAGTGGGAG showed a switch fluorescence ratio of 0.968. Sequence AGAGTGGGG has a switch fluorescence ratio of 0.94. AGAGTGTACT showed a switch fluorescence ratio of 0.999. AGAGTGTCGG gave a switch fluorescence ratio of 0.984. AGAGTTACTG gave a switch fluorescence ratio of 0.953. Sequence AGAGTTTCCG has a switch fluorescence ratio of 1.06. AGAGTTTTAA showed a switch fluorescence ratio of 1. AGATAATCAA showed a switch fluorescence ratio of 0.961. Sequence AGATACAGGC has a switch fluorescence ratio of 1. In the case of AGATACCG, the switch fluorescence ratio is reported as 1.06. AGATACGCTC was tested, and the switch fluorescence ratio was 1.05. Sequence AGATATACGT has a switch fluorescence ratio of 1.07. Sequence AGATATAGAT has a switch fluorescence ratio of 0.972. With AGATATCCCT the switch fluorescence ratio was 1.05. AGATATCCGT showed a switch fluorescence ratio of 1.03. Sequence AGATATGGCG has a switch fluorescence ratio of 0.946. Work on AGATATTG yielded a switch fluorescence ratio of 0.988. AGATCACTTT gave a switch fluorescence ratio of 1.02. For AGATCCACGT, the switch fluorescence ratio was 1.05. AGATCTGTCC gave a switch fluorescence ratio of 1.05. For AGATCTGTCG, the switch fluorescence ratio was 1.06. For AGATCTTCTG, the switch fluorescence ratio was 1.07. AGATGCCTAT showed a switch fluorescence ratio of 0.929. For AGATGCTGGG, the switch fluorescence ratio was 0.943. In the case of AGATGGCGA, the switch fluorescence ratio is reported as 1. In the case of AGATGTTATA, the switch fluorescence ratio is reported as 1.01. With AGATTATAGT the switch fluorescence ratio was 0.986. AGATTCTATC gave a switch fluorescence ratio of 1.01. Sequence AGATTCTCA has a switch fluorescence ratio of 1. Work on AGATTTAACT yielded a switch fluorescence ratio of 0.967. With AGATTTAAGC the switch fluorescence ratio was 1. In the case of AGATTTCCCG, the switch fluorescence ratio is reported as 1.04. With AGATTTTACG the switch fluorescence ratio was 1. For AGCAAACGGT, the switch fluorescence ratio was 1.21. Sequence AGCAACTGGG has a switch fluorescence ratio of 1.14. With AGCAAGAACT the switch fluorescence ratio was 1.52. AGCAAGTAGA showed a switch fluorescence ratio of 1.1. AGCAATAAAG showed a switch fluorescence ratio of 1.26. AGCACCCGGA showed a switch fluorescence ratio of 1.05. Sequence AGCACCTACG has a switch fluorescence ratio of 1.56. With AGCACGAAGA the switch fluorescence ratio was 1.05. AGCACGAATC showed a switch fluorescence ratio of 1.06. Work on AGCACGTAGA yielded a switch fluorescence ratio of 1.03. Sequence AGCACTAGC has a switch fluorescence ratio of 1.01. AGCAGATTAT was tested, and the switch fluorescence ratio was 0.977. For AGCAGCAGG, the switch fluorescence ratio was 1.04. Sequence AGCAGGCGTG has a switch fluorescence ratio of 1.03. For AGCAGTAGGG, the switch fluorescence ratio was 1.03. Sequence AGCAGTGCTG has a switch fluorescence ratio of 0.936. AGCAGTGTTA was tested, and the switch fluorescence ratio was 1.01. Work on AGCATAACTT yielded a switch fluorescence ratio of 1.06. AGCATAGAAT gave a switch fluorescence ratio of 0.993. In the case of AGCATAGGGA, the switch fluorescence ratio is reported as 1. AGCATATTTA gave a switch fluorescence ratio of 0.993. AGCATCTAA showed a switch fluorescence ratio of 0.996. AGCATCTGTG showed a switch fluorescence ratio of 0.998. In the case of AGCATGATAA, the switch fluorescence ratio is reported as 0.972. With AGCATGTAAG the switch fluorescence ratio was 1.02. Work on AGCATTATT yielded a switch fluorescence ratio of 1.04. AGCATTCCCC was tested, and the switch fluorescence ratio was 1.06. AGCCACCTCG showed a switch fluorescence ratio of 1.02. AGCCACTACG showed a switch fluorescence ratio of 1.02. Work on AGCCACTCTA yielded a switch fluorescence ratio of 1.02. AGCCAGTCCT was tested, and the switch fluorescence ratio was 1.12. Work on AGCCATCGCG yielded a switch fluorescence ratio of 1.01. For AGCCCAGGTT, the switch fluorescence ratio was 2.9. With AGCCCGCACA the switch fluorescence ratio was 2.31. For AGCCCGGGGT, the switch fluorescence ratio was 1.53. In the case of AGCCCGTCCT, the switch fluorescence ratio is reported as 1.04. Sequence AGCCGGAGGA has a switch fluorescence ratio of 0.987. In the case of AGCCGGGG, the switch fluorescence ratio is reported as 0.977. In the case of AGCCGGGGAA, the switch fluorescence ratio is reported as 1.02. Sequence AGCCGTCCGC has a switch fluorescence ratio of 1.15. With AGCCGTTCCT the switch fluorescence ratio was 1.04. Sequence AGCCTAAATG has a switch fluorescence ratio of 1.04.
